# Results published in PubChem BioAssay AID488969 (Vanderbilt High Throughput Screening Facility, 2010).
# The full ranking holds about 110,000 compounds; the median of “z-score” is about -0.1, and the highest 2% start at about 2. This is one part of the list.
# Molecular target: Metabotropic glutamate receptor 8 (Rattus norvegicus) (UniProt P70579)
# Experiment: rat mGluR8 modulators via GIRK flux, primary screen, cell-based, thallium flux, HTS (AID 488969)
# Conditions: HEK293 rat mGluR8, GIRK (G protein-gated inwardly rectifying potassium channel) thallium flux, FluoZin2; at 10 µM; stronger effect = higher value; submaximal glutamate (EC20) added with thallium
# Chain of UniProt P70579 (P70579 whole entry, looked up): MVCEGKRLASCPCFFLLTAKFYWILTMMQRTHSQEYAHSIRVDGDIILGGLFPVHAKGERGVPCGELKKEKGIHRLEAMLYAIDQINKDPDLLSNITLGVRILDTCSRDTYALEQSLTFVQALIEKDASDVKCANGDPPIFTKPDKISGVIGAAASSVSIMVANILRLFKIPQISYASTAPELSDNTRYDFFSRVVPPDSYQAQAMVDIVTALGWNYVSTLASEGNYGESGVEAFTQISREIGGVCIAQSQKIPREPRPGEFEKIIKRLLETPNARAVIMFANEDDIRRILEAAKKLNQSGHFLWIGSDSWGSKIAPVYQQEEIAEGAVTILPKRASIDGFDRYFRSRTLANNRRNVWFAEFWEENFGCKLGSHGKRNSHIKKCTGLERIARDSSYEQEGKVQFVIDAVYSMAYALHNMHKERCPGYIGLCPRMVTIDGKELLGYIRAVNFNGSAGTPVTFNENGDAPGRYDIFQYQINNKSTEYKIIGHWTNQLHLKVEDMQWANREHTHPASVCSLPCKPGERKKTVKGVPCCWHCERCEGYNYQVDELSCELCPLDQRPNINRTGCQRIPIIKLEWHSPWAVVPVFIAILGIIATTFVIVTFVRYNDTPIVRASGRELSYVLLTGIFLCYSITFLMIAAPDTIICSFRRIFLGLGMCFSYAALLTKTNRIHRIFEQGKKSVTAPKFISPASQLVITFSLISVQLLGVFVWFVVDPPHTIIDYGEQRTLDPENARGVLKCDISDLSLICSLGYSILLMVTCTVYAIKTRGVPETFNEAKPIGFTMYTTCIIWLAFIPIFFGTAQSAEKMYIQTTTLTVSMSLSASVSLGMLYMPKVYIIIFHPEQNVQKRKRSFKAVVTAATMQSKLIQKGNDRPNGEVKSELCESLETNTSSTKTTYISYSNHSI
row,SMILES,z-score
1,CC(/C=N/NC(=O)c1ccncc1)=C\c1ccc(C(C)C)cc1,-0.0873
2,O=C(COC(=O)c1cccs1)c1ccccc1,0.738
3,Cc1ccc(/C=N/NC(=O)c2ccccn2)s1,0.342
4,CCOc1ccc2nc(NC(=O)CN3CCN(C)CC3)sc2c1,0.433
5,CC(C)(C)NC(=O)c1cc(NC(=O)c2ccco2)cc(NC(=O)c2ccco2)c1,1.64
6,Cc1c(C(=O)N(C)C)sc2nc(-c3ccccn3)[nH]c(=O)c12,-0.0644
7,CC1CCCC(NC(=O)Cn2cc3c(n2)CCCCC3)C1C (stereo not given),0.237
8,O=C(C[n+]1cc(-c2ccc(F)cc2)n2c1CCC2)Nc1nc(-c2ccccc2)cs1,-0.217
9,CCCOc1cccc(C2/C(=C(/O)c3ccccc3)C(=O)C(=O)N2CCN(C)C)c1 (stereo not given),0.738
10,COC(=O)C1=C(C)NC(=O)NC1c1cc(Cl)ccc1OC (stereo not given),-0.227
11,CCC1CCCCN1C(=O)C1CC(c2cc(Cl)c(OC)cc2OC)=NO1 (stereo not given),-0.518
12,COc1ccccc1-c1nc2n(n1)C(c1ccccc1Cl)C(C(N)=O)=C(C)N2 (stereo not given),-0.224
13,Cc1cccc(/C(N)=N/OC(=O)CCCN2C(=O)c3ccccc3C2=O)c1,-0.0566
14,CN(C)c1nc(N)nc(CSc2nnnn2-c2ccc(F)cc2)n1,0.047
15,CN(C)c1nc(Nc2ccccc2)nc(Oc2ccc(=O)[nH]n2)n1,-0.00591
16,Cc1nc2ccccn2c1P(=Nc1ccccc1)(N(C)C)N(C)C,0.266
17,O=C(OC1CCN(c2ccc([N+](=O)[O-])cc2)CC1)c1ccccc1,-0.193
18,O=C(CSc1nnc(-c2ccncc2)o1)Nc1ccccc1Cl,1.13
19,Cc1cc(=O)oc2cc(Nc3ccccc3)ccc12,-0.0811
20,N#Cc1ccc(COC(=O)c2ccc3c(=O)[nH]c(CN4CCOCC4)nc3c2)cc1,0.508
21,CCNC(=O)n1nccc1C(C)Oc1cccc(C(F)(F)F)c1 (stereo not given),0.145
22,CSCc1cc(N2CCOCC2)nc(SCc2ccc(Cl)c(Cl)c2)n1,-0.0965

row,SMILES,z-score
1,COC(=O)c1cc(OC)c(OC)cc1NC(=O)CSc1ccc(C)cc1,-0.178
2,COc1ccc(OC)c(-n2c(-c3ccccc3)n[nH]c2=S)c1,-0.134
3,Cc1cccc(OCCC(=O)Nc2ccc(S(=O)(=O)N3CCCC3)cc2)c1,-0.642
4,COc1ccccc1C(CC(=O)Nc1ccc(C)c(C)c1)c1ccc(OC(C)C)cc1 (stereo not given),0.0227
5,COc1ccc(CCNC(=O)Cn2nnc(-c3cccc(OC)c3OC)n2)cc1OC,1.8
6,COc1ccc(OCCSc2ncccn2)cc1,-0.163
7,O=C(O)c1ccc(COCC(F)(F)F)cc1,-0.34
8,CCN1C(=O)/C(=C/c2nc3ccccc3c(=O)n2-c2ccccc2)c2ccccc21,-0.148
9,CC(=O)Nc1ccc(Nc2nc(C)c([N+](=O)[O-])c(Nc3ccccc3)n2)cc1,-0.396
10,CCOC(=O)C(O)(NC(=O)c1cccnc1)C(F)(F)F (stereo not given),0.126
11,O=C(COC(=O)c1ccc(Cl)nc1)Nc1ccc(S(=O)(=O)N2CCCC2)cc1,-0.776
12,Cc1ccc(Cl)c2c1NC(=O)C2(O)CC(=O)c1ccc(Br)cc1 (stereo not given),-0.648
13,CCOc1ccc(/C=C/C(=O)Nc2cccc(C(C)=O)c2)cc1,-0.188
14,COc1cc(C2NC(=O)NC(c3ccccc3)=C2C(C)=O)ccc1OCC#N (stereo not given),-0.392
15,Cc1c(NC(=O)CSc2ncn[nH]2)c(=O)n(-c2ccccc2)n1C,0.565
16,CCc1ccc(NC(=O)c2ccccc2NC(=O)C2CCCO2)cc1 (stereo not given),-0.0852
17,CC1CCN(c2ccc(C(=O)Nc3nnc(C4CC4)s3)cc2[N+](=O)[O-])CC1,-0.311
18,CN1CCN(C(=S)NC(=O)/C=C/c2cccc3ccccc23)CC1,2.03
19,Cc1ccc(C)c(NC(=O)c2ccc3ccccc3n2)c1,-0.43
20,O=C(Cn1nnc(-c2ccccc2-n2cnnn2)n1)N1CCCCC1,0.026
21,CCOC(=O)c1c(NC(=O)Cn2nc(C(F)(F)F)cc2C)sc(C)c1C,0.98
22,Cc1nn(Cc2ccc(F)cc2)c(C)c1NC(=O)c1nn(C)cc1Cl,0.0506

row,SMILES,z-score
1,O=C(CSCc1ccc(Cl)cc1)N1CCOCC1,-0.305
2,CCCN(CCC)S(=O)(=O)c1ccc(NC(=O)C2CCCO2)cc1 (stereo not given),-0.0696
3,C#CCN(C)CC/C=C1\c2ccccc2CSc2ccccc21,1.63
4,COC(=O)C1=C(C)NC(C)=C(C(=O)OC)C1C1CC=CCC1 (stereo not given),-0.488
5,CCOc1cc(C(=O)OCC(=O)NCc2ccco2)cc(OCC)c1OCC,0.575
6,C=C(C)COc1ccc2c(C)c(C)c(=O)oc2c1OCC(=C)C,-0.0219
7,Cc1ccc(NP(=O)(c2ccc(N(C)C)cc2NC(=O)c2cccs2)N2CCOCC2)cc1Cl (stereo not given),-0.604
8,COc1cccc(/C=N/n2c(N)c(S(=O)(=O)c3cccs3)c3nc4ccccc4nc32)c1OC,0.0205
9,Cc1oc(-c2ccc(Cl)cc2)nc1CS(=O)CC(=O)NCCCN(C)C1CCCCC1 (stereo not given),1.74
10,CCCCCCC(=O)Nc1ccc(C(=O)N/N=C/c2cccnc2)cc1,-0.6
11,Cc1ccc(S(=O)(=O)C2(C(=O)NC3CCCC3)CC2)cc1,0.0369
12,CSc1ccccc1NC(=O)c1cnc2n(c1=O)CCS2,-1.65
13,COc1cccc(C(=O)N/N=C/C(Br)=C/c2ccccc2)c1,0.954
14,O=C(Nc1ccn(Cc2c(F)c(F)c(F)c(F)c2F)n1)c1cccc(Cn2cc([N+](=O)[O-])cn2)c1,0.808
15,COc1cc(OC)c(OC)cc1/C=N/N(C)c1ccccc1,-0.544
16,O=C(CN1C(=O)S/C(=C/c2cccs2)C1=O)N1CCOCC1,-0.0771
17,CCOC(=O)Cc1csc(NS(=O)(=O)Cc2ccccc2)n1,0.143
18,Cc1cc2ccccc2c(=O)n1CC(=O)N(C)c1ccc(F)cc1,0.502
19,Cc1ccc(S(=O)(=O)Nc2ccccc2/C=N/c2nc3ccccc3n2C(C)C)cc1,-0.263
20,c1ccc(OCCCCN2CCOCC2)cc1,-0.0323
21,S=C(NCc1ccc(Cl)cc1)NC1CCCCC1,0.172
22,NC(=O)CC[C@H](NC(=O)c1ccc(F)cc1)C(=O)OCC(=O)Nc1ccc(N2CCOCC2)cc1,-0.255

row,SMILES,z-score
1,CCNC(=S)SCCOc1ccc(C)cc1,0.376
2,Cc1ccccc1OCC(=O)Nc1ccc(N2CCN(C(=O)C(C)C)CC2)c(Cl)c1,0.064
3,CCCCc1c(O)nc(SCC(=O)N2CCOCC2)[nH]c1=O,0.0929
4,CCN(CC)Cc1c(O)ccc2c([N+](=O)[O-])c(C)n(-c3ccc(OC)cc3)c12,-0.194
5,Cc1ccc(N=C2NC(=O)CS2)cc1,2.26
6,CCc1ccc(NC(=O)CSc2nc3n[nH]c(C)c3c(=N)n2-c2cccc(OC)c2)cc1,0.339
7,CC1CCCCN1CC(=O)NCc1ccc2c(c1)OCO2 (stereo not given),-0.58
8,CCN1C(=O)CC(C(=O)O)SC1=Nc1ccc(OC)cc1 (stereo not given),-0.109
9,CCOc1ccc(NC(=O)C2CCN(c3nnnn3-c3ccccc3)CC2)cc1,-0.883
10,O=C(O)C1CC(=O)N(c2ccc(Br)cc2)C1 (stereo not given),-0.00342
11,Cc1ccsc1/C=N/Nc1nc(Cl)c(Cl)cc1Cl,0.292
12,CCc1nn(CC(=O)N2CCN(Cc3ccc4c(c3)OCO4)CC2)c(=O)c2cc3occc3n12,-0.254
13,O=C(O)c1cccc(S(=O)(=O)Nc2ccc(O)cc2Sc2nc3ccccc3s2)c1,0.537
14,CCOc1cc(/C=N/N=C(\N)c2nonc2N)cc(Br)c1OCc1cccc2ccccc12,-0.124
15,COc1ccc(CCNC2CC(C)N(C)CC2C)cc1OC (stereo not given),-0.428
16,CN(C)CCCNC1=CC(=O)OC12CCCCC2,0.108
17,C#CCn1c(=NC(=O)c2cccs2)sc2cccc(OC)c21,-0.0768
18,Cc1ccc(S(=O)(=O)C/N=C(/NC(=S)N(c2ccccc2)c2ccccc2)c2ccccc2)cc1,-0.238
19,O=C(O)CSc1nccn1-c1cccc(Cl)c1,0.0771
20,CCC(C)(C)n1nnnc1C(c1cccc(C#N)c1)N1CCN(c2cccc(C)c2C)CC1 (stereo not given),0.169
21,COC(=O)Cc1ccc(NC(=S)NCc2ccc(F)cc2)cc1,-0.19
22,CCN(C#N)c1nc(N(C)C)nc(N(C)C)n1,-0.25

row,SMILES,z-score
1,COc1ccc(CCNc2ccncn2)cc1,-0.654
2,CC(C)(C)c1nc(CN2CCOCC2)cc(CN2CCOCC2)c1O,-0.0386
3,CCN=C1SC(CC(=O)Nc2ccccc2OCC)C(=O)N1CC (stereo not given),0.408
4,CCc1ccc(Nc2cnn(-c3nc4ccccc4s3)c(=O)c2Cl)cc1,-0.0416
5,CCN(CC)C(=O)CN(C#N)c1nc(C)cc(C)n1,0.274
6,CCCCN(C(=O)CNC(=O)c1ccco1)C(C(=O)NC1CCCC1)c1ccc(OC)cc1 (stereo not given),-1.06
7,CCn1cc(C2=NCC(C)O2)c2ccccc21 (stereo not given),-0.185
8,CC(CCc1ccccc1)NC(=O)COC(=O)C12CC3CC(CC(Br)(C3)C1)C2 (stereo not given),-0.193
9,Cc1cc(=O)oc2ccc(OCC(=O)N3CCC(C)CC3)cc12,-0.44
10,Cc1ccc(S(=O)(=O)NC2=C(N3CCN(Cc4ccccc4)CC3)C(=O)c3ccccc3C2=O)cc1,0.292
11,O=C1/C(=C/c2cccnc2)SC(=S)N1c1ccc(F)cc1,-0.12
12,COc1ccc2nc(N/C(N)=N/C(=S)Nc3ccc(C)c(C)c3)nc(C)c2c1,0.0146
13,O=C(NCc1ccccc1)C(=O)NCC(c1ccco1)N1CCOCC1 (stereo not given),-0.00404
14,Cc1ccc(-n2c(SCC(=O)Nc3cccc(C)c3)nc3c(oc4ccccc43)c2=O)cc1,0.143
15,Cc1ccc(C)c(Cn2c(C(C)O)nc3ccccc32)c1 (stereo not given),-0.218
16,CC1CC(C)CN(C(=O)CN2CCN(Cc3ccc(Cl)cc3)C2=O)C1 (stereo not given),-0.081
17,CCSc1nnc(NC(=O)C2CCN(S(=O)(=O)c3c(C)c(C)cc(C)c3C)CC2)s1,-0.0856
18,Cc1cc(C(=O)COC(=O)C2=COCCO2)c(C)n1-c1ccc2c(c1)OCO2,-0.224
19,Cc1cc(C)n(CC(=O)N/N=C/c2ccco2)n1,-0.0112
20,O=C(Nc1ccc(O)cc1)/C(=C\c1cccs1)NC(=O)c1ccccc1,-0.207
21,CCOC(=O)C1CCN(C(=O)C2CCN(S(=O)(=O)c3cc(Cl)ccc3Cl)CC2)CC1,-0.787
22,c1ccc2c(c1)NC1(CCCC1)n1c-2nc2ccccc21,0.000719
